Data reported in the antibiotic and cytotoxicity screens of Wong et al. (2023).
This is one part of the list.

system: HSkMC (human skeletal muscle cells); test: cytotoxicity call (relative viability < 0.9); details: 10 µM

With `C[C@H]1CN([C@@H](C)CO)S(=O)(=O)c2ccc(C#Cc3ccc(F)cc3)cc2O[C@@H]1CN(C)C(=O)CN(C)C` as the molecule, how does the cytotoxicity call read?
Its cytotoxicity call is “inactive”.

Which cytotoxicity call does the source give for `CN(C)C(=O)c1ccc(-c2cccc(-c3nc(C(=O)NC4CCCC4)cc4c3[C@H](CCO)N([S@@](=O)C(C)(C)C)C4)c2)cc1` here?
The cytotoxicity call was “inactive”.

For `O=C(C[C@@H]1CC[C@H]2[C@@H](COC[C@H](O)CN2C(=O)Nc2cccc(Cl)c2)O1)NCCCN1CCOCC1`, which cytotoxicity call is on record?
The cytotoxicity call was “inactive”.

How did the cytotoxicity call turn out when `CC(C)NC(=O)Nc1ccc2c(c1)C(=O)N([C@H](C)CO)C[C@@H](C)[C@@H](CN(C)C(=O)Nc1ccc(C(F)(F)F)cc1)OCCCC[C@@H](C)O2` was run?
The cytotoxicity call was “inactive”.

How did the cytotoxicity call turn out when `NCCCc1nc2c(s1)CCCC2` was run?
The cytotoxicity call was “inactive”.

For `Cc1noc(C)c1S(=O)(=O)N(C)C[C@H]1Oc2ccc(NC(=O)NC3CCCCC3)cc2CC(=O)N([C@H](C)CO)C[C@@H]1C`, which cytotoxicity call is on record?
The cytotoxicity call was “inactive”.

Which cytotoxicity call does the source give for `C[C@@H]1CCCCO[C@@H](CN(C)C(=O)Nc2ccc(C(F)(F)F)cc2)[C@H](C)CN([C@@H](C)CO)C(=O)c2cc(NS(=O)(=O)c3cn(C)cn3)ccc2O1` here?
The cytotoxicity call was “inactive”.

With `Cc1noc(C)c1S(=O)(=O)Nc1cccc2c1O[C@H](CN(C)S(=O)(=O)c1ccc(F)cc1)[C@H](C)CN([C@@H](C)CO)C2=O` as the molecule, how does the cytotoxicity call read?
Its cytotoxicity call is “inactive”.

`COc1cccc(NC(=O)N(C)C[C@H]2Oc3cc(Br)ccc3S(=O)(=O)N([C@H](C)CO)C[C@H]2C)c1` was tested. Which cytotoxicity call did it give?
Its cytotoxicity call is “inactive”.

How did the cytotoxicity call turn out when `COc1ccc(S(=O)(=O)N(C)C[C@@H]2Oc3ccc(NC(=O)Nc4c(C)noc4C)cc3CC(=O)N([C@@H](C)CO)C[C@H]2C)cc1` was run?
The cytotoxicity call was “inactive”.

How did the cytotoxicity call turn out when `C[C@@H]1CCCCO[C@@H](CN(C)C(=O)c2ccccc2)[C@@H](C)CN([C@@H](C)CO)C(=O)c2cc(NC(=O)c3ccccc3)ccc2O1` was run?
Its cytotoxicity call is “inactive”.

How did the cytotoxicity call turn out when `Cc1ccc(S(=O)(=O)Nc2ccc3c(c2)C(=O)N([C@@H](C)CO)C[C@@H](C)[C@H](CN(C)C(=O)C2CCCCC2)OCCCC[C@H](C)O3)cc1` was run?
Its cytotoxicity call is “inactive”.

Which cytotoxicity call does the source give for `C[C@@H]1CN([C@H](C)CO)C(=O)Cc2cc(NC(=O)NC3CCCCC3)ccc2O[C@@H]1CN(C)Cc1ccc(Oc2ccccc2)cc1` here?
The cytotoxicity call was “inactive”.

How did the cytotoxicity call turn out when `COCC(=O)N(C)C[C@@H]1Oc2cc(-c3ccc(OC)cc3)ccc2S(=O)(=O)N([C@@H](C)CO)C[C@@H]1C` was run?
The cytotoxicity call was “inactive”.

How did the cytotoxicity call turn out when `C[C@H]1CN([C@@H](C)CO)C(=O)c2cc(-c3cccc(C#N)c3)cnc2O[C@@H]1CN(C)C(=O)c1cnccn1` was run?
Its cytotoxicity call is “inactive”.

`NCC[C@@H]1CC[C@@H](NC(=O)C2CCCCC2)[C@@H](CO)O1` was tested. Which cytotoxicity call did it give?
The cytotoxicity call was “inactive”.

Which cytotoxicity call does the source give for `OC[C@@H]1CCCCN1` here?
Its cytotoxicity call is “inactive”.

With `CC(C)NC(=O)N(C)C[C@@H]1Oc2ccc(NC(=O)c3ccncc3)cc2CC(=O)N([C@H](C)CO)C[C@@H]1C` as the molecule, how does the cytotoxicity call read?
Its cytotoxicity call is “inactive”.

With `O=C(C[C@H]1C[C@H]2c3cc(NC(=O)Nc4ccc(C(F)(F)F)cc4)ccc3O[C@H]2[C@H](CO)O1)NCc1cc(F)ccc1F` as the molecule, how does the cytotoxicity call read?
The cytotoxicity call was “inactive”.

For `C[C@H](CO)N1C[C@H](C)[C@H](CN(C)S(=O)(=O)c2ccccc2F)Oc2cc(C#Cc3ccccc3)ccc2S1(=O)=O`, which cytotoxicity call is on record?
The cytotoxicity call was “inactive”.

`COc1ccc(CCN2C(=O)[C@@]3(c4ccc([N+](=O)[O-])cc4)CC(=O)N(CC45CC6CC(CC(C6)C4)C5)[C@@H]3c3ccc(CO)cc32)cc1` was tested. Which cytotoxicity call did it give?
The cytotoxicity call was “inactive”.

With `C[C@H](CO)N1C[C@H](C)[C@H](CN(C)S(=O)(=O)c2cn(C)cn2)Oc2ccc(NS(=O)(=O)c3cn(C)cn3)cc2C1=O` as the molecule, how does the cytotoxicity call read?
The cytotoxicity call was “inactive”.

`NC(Cc1c[nH]c2ccccc12)C(=O)O` (stereo not given) was tested. Which cytotoxicity call did it give?
Its cytotoxicity call is “inactive”.

`C[C@@H]1CN([C@@H](C)CO)C(=O)Cc2cc(NC(=O)Nc3ccc(C(F)(F)F)cc3)ccc2O[C@@H]1CN(C)C(=O)NC1CCCCC1` was tested. Which cytotoxicity call did it give?
The cytotoxicity call was “active”.

With `C[C@@H]1CN([C@@H](C)CO)C(=O)c2cc(NC(=O)Cc3ccccc3)ccc2O[C@H]1CN(C)Cc1ccc(C(F)(F)F)cc1` as the molecule, how does the cytotoxicity call read?
Its cytotoxicity call is “inactive”.

With `C[C@@H]1CCCCO[C@@H](CN(C)C(=O)Nc2ccc3c(c2)OCO3)[C@@H](C)CN([C@H](C)CO)C(=O)c2cc(NS(=O)(=O)c3ccc(Cl)cc3)ccc2O1` as the molecule, how does the cytotoxicity call read?
The cytotoxicity call was “inactive”.

With `C[C@H]1CN([C@@H](C)CO)C(=O)c2cc(Br)cnc2O[C@@H]1CN(C)Cc1ccc2c(c1)OCO2` as the molecule, how does the cytotoxicity call read?
Its cytotoxicity call is “inactive”.

For `NC(=O)NC1CCCCC1`, which cytotoxicity call is on record?
The cytotoxicity call was “inactive”.

With `C[C@H](CO)N1C[C@H](C)[C@@H](CN(C)C(=O)Nc2ccc(F)cc2)Oc2ccc(NC(=O)Nc3cccc4ccccc34)cc2CC1=O` as the molecule, how does the cytotoxicity call read?
Its cytotoxicity call is “inactive”.

`C[C@H]1CN([C@@H](C)CO)C(=O)Cc2cc(NC(=O)CCC(F)(F)F)ccc2O[C@@H]1CN(C)Cc1ccc(C(F)(F)F)cc1` was tested. Which cytotoxicity call did it give?
The cytotoxicity call was “inactive”.
